Source: the supplement of paper PMC10126150
Sequences with one replicate were seen in a single cluster, so their values are uncertain.

Test system: ATP
Test: switch fluorescence ratio, 500 uM ATP over buffer (Cy3 cluster intensity, sum of 5 cycles each) (fold (ratio)); higher = stronger signal-on switching upon ATP binding; sequences stand for … in TCGTCGGCAGCGTCAGATGTGTATAAGAGACAGTTTTTTTTTTTTTTTTTTTTTTTTT…TC
Details: aptamer strand: ATP DNA aptamer (quencher-CACCTGGGGGAGTATTGCGGAGGAAGG + anchor), 100 nM annealed; ATP concentration: 500 uM; one replicate
In short: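 The fluorescence ratio divides summed target-cycle Cy3 intensity by summed buffer-cycle Cy3 intensity for each cluster and is averaged per switch-domain sequence. Cy3-labelled switching-strand clusters on a modified Illumina MiSeq flow-cell were annealed to 100 nM quencher-labelled ATP aptamer, then imaged in selection buffer and again after 15 min with 500 uM ATP at 22 °C. Five such cycles were run, with NaOH stripping and re-annealing between them, and clusters outside 100-1000 RFU were excluded.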
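Note: ATP exposure 15 min at 22 °C before imaging.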

## ACGGCAAGCC
  switch fluorescence ratio: 1.27

## TTATCGATCG
  switch fluorescence ratio: 1

## GTAATTCAAG
  switch fluorescence ratio: 1.04

## TTATATAAGG
  switch fluorescence ratio: 1.01

## TAATTCTGAT
  switch fluorescence ratio: 0.953

## AGTGAAGGGT
  switch fluorescence ratio: 0.998

## TACGGCAACT
  switch fluorescence ratio: 1.27

## ACCACCGGTT
  switch fluorescence ratio: 1.04

## ACGTCTTTAT
  switch fluorescence ratio: 0.959

## AGGTCATAG
  switch fluorescence ratio: 1.02

## CCCATTGCAG
  switch fluorescence ratio: 1.08

## AGGAGGCCGA
  switch fluorescence ratio: 1.03

## TGACTTTGAG
  switch fluorescence ratio: 1.01

## AGAGGCTATG
  switch fluorescence ratio: 1.02

## CCATGTGAG
  switch fluorescence ratio: 0.996

## ACACATCTAA
  switch fluorescence ratio: 0.977

## TGGTGTAATA
  switch fluorescence ratio: 1.01

## GGGGAATTCT
  switch fluorescence ratio: 0.971

## GCACTGTCAC
  switch fluorescence ratio: 1.29

## CAGGGTATTG
  switch fluorescence ratio: 0.982

## GCATCTAGA
  switch fluorescence ratio: 1.07

## GCTGATG
  switch fluorescence ratio: 1.04

## CACTCGATGA
  switch fluorescence ratio: 0.984

## GTTGATTCCC
  switch fluorescence ratio: 0.979

## TCATTTGTT
  switch fluorescence ratio: 0.992

## TGAACTGC
  switch fluorescence ratio: 1.04

## TAAATTGTTG
  switch fluorescence ratio: 0.992

## TTTGCGCTAT
  switch fluorescence ratio: 2.55

## GGACAGGCAA
  switch fluorescence ratio: 1.2

## CATGATCAT
  switch fluorescence ratio: 0.949

## ATGTACCTAA
  switch fluorescence ratio: 1.19

## CGAAACGCGC
  switch fluorescence ratio: 1.05

## CTGCGGCTTA
  switch fluorescence ratio: 1.04

## CGGCGTATGT
  switch fluorescence ratio: 1.04

## GTAGTCAATG
  switch fluorescence ratio: 1.21

## GTTATGTGGA
  switch fluorescence ratio: 0.976

## AGCAGGGG
  switch fluorescence ratio: 1.46

## ATTCCGACA
  switch fluorescence ratio: 1.04

## GGTCCTTATT
  switch fluorescence ratio: 1.02

## TGAGGGTCAC
  switch fluorescence ratio: 1.01

## CAAGTTATCA
  switch fluorescence ratio: 0.972

## TTCATTGTCT
  switch fluorescence ratio: 0.949

## CGTACCCGGA
  switch fluorescence ratio: 0.995

## ATCCTGTCTT
  switch fluorescence ratio: 1.06

## CAGGTGTCGA
  switch fluorescence ratio: 1.1

## CGCATCAATT
  switch fluorescence ratio: 1.04

## TGGTGCGCTT
  switch fluorescence ratio: 1.02

## TACTGGCCTG
  switch fluorescence ratio: 0.997

## CGCGGCTGTT
  switch fluorescence ratio: 0.958

## TAAAACTGCT
  switch fluorescence ratio: 0.973

## TACCAATA
  switch fluorescence ratio: 1.08

## TTAGGAGGAG
  switch fluorescence ratio: 0.974

## TTCAGGTTAA
  switch fluorescence ratio: 1.01

## AGGAGATGCT
  switch fluorescence ratio: 1.01

## TTCATATAT
  switch fluorescence ratio: 1.05

## GAGCGAGGAG
  switch fluorescence ratio: 0.957

## TGAGGGACCT
  switch fluorescence ratio: 1.05

## ATTCAATTTG
  switch fluorescence ratio: 0.999

## CTAGCATATG
  switch fluorescence ratio: 1.06

## TGGGTCCAG
  switch fluorescence ratio: 0.965

## TAACATAAGG
  switch fluorescence ratio: 1.01

## TCCAGATGC
  switch fluorescence ratio: 1.28

## TGAAAGGTAA
  switch fluorescence ratio: 1.02

## TTAAAAGCAA
  switch fluorescence ratio: 2.29

## TATATGCCGA
  switch fluorescence ratio: 0.967

## ATCGTAGAG
  switch fluorescence ratio: 0.945

## GCTGAGGACC
  switch fluorescence ratio: 1

## CAGTCCTATG
  switch fluorescence ratio: 1.01

## GGGCTTGCGG
  switch fluorescence ratio: 0.962

## TATGGATTTC
  switch fluorescence ratio: 1.01

## AAGATCGCGT
  switch fluorescence ratio: 1.01

## AATGTGTGTT
  switch fluorescence ratio: 1.02

## GGCATCCTCA
  switch fluorescence ratio: 1.04

## TTGGTGCAAG
  switch fluorescence ratio: 0.97

## CAGTTAGCGT
  switch fluorescence ratio: 0.94

## AATGGGCTTT
  switch fluorescence ratio: 0.979

## GTCCTATTCA
  switch fluorescence ratio: 0.987

## TATACTGGAA
  switch fluorescence ratio: 1.02

## GCTCCGTTAG
  switch fluorescence ratio: 3.42

## TGAGGAGAGG
  switch fluorescence ratio: 1.02

## GAACGAGCAG
  switch fluorescence ratio: 1.06

## GGTAACGCTC
  switch fluorescence ratio: 1.04

## TTTATGGTGA
  switch fluorescence ratio: 0.981

## CAAAAGTCGC
  switch fluorescence ratio: 0.966

## TAAATTTCTG
  switch fluorescence ratio: 1.01

## CATGAACTGG
  switch fluorescence ratio: 1.01

## CCCGTCGTGT
  switch fluorescence ratio: 1.09

## CGACGAGGCG
  switch fluorescence ratio: 1.01

## GGTAAAAGGG
  switch fluorescence ratio: 0.955

## GCCGCCGGTG
  switch fluorescence ratio: 1.1

## CGTGAGGTGG
  switch fluorescence ratio: 0.925

## ATTTTCTAAT
  switch fluorescence ratio: 0.969

## GGCGGACAAT
  switch fluorescence ratio: 0.984

## AAGCTTGGGC
  switch fluorescence ratio: 1.03

## GTCTTATGGT
  switch fluorescence ratio: 0.991

## TTCGCGCTA
  switch fluorescence ratio: 1.07

## ATAATCTGC
  switch fluorescence ratio: 1

## TTAGGTTTCC
  switch fluorescence ratio: 0.981

## GCCAGCTACC
  switch fluorescence ratio: 1.14

## TAGTAGCTGC
  switch fluorescence ratio: 1.04

## GGATCCACGA
  switch fluorescence ratio: 0.993

## ACCGCTCGAT
  switch fluorescence ratio: 1.08

## TTCCGTTACC
  switch fluorescence ratio: 1.21

## CGGGACGAG
  switch fluorescence ratio: 0.992

## TACTATTTA
  switch fluorescence ratio: 1.06

## TCAGTCCAGA
  switch fluorescence ratio: 1.02

## TAAGCCCAAG
  switch fluorescence ratio: 1.09

## GAAGCGAGAG
  switch fluorescence ratio: 2.2

## GGTTCTGTAG
  switch fluorescence ratio: 1.03

## ACCTTTGGCC
  switch fluorescence ratio: 1.09

## TGCATATGGA
  switch fluorescence ratio: 0.956

## CCTACCTCGA
  switch fluorescence ratio: 1.6

## GGTGTAAACT
  switch fluorescence ratio: 0.978

## TGGTTGCGTC
  switch fluorescence ratio: 1.02

## AGGGAACAGC
  switch fluorescence ratio: 0.969

## GCACCCTGTT
  switch fluorescence ratio: 0.989

## AGCTCAAGTA
  switch fluorescence ratio: 0.984

## TGGTGTACCC
  switch fluorescence ratio: 0.989

## GACTTGGTGG
  switch fluorescence ratio: 0.949

## TAGTTCTCCG
  switch fluorescence ratio: 1.02

## GGGATTAGGC
  switch fluorescence ratio: 1.03

## CATTGTAACA
  switch fluorescence ratio: 1.02

## ATGTTACTGC
  switch fluorescence ratio: 1.02

## TGTTATTGTG
  switch fluorescence ratio: 1.01

## GTAATAGACG
  switch fluorescence ratio: 0.984

## CTGGGCGCC
  switch fluorescence ratio: 1.03

## AGCGAATGTA
  switch fluorescence ratio: 1.05

## ATCATGGTA
  switch fluorescence ratio: 0.992

## AGGCAACTTG
  switch fluorescence ratio: 1.03

## ATTCGTGGAG
  switch fluorescence ratio: 0.962

## GATTGGGCAT
  switch fluorescence ratio: 0.974

## AGTATCAGGG
  switch fluorescence ratio: 0.967

## CAGCACCTTT
  switch fluorescence ratio: 1.01

## AATTAACAGA
  switch fluorescence ratio: 1.04

## AGGGCGTACT
  switch fluorescence ratio: 1.03

## TTCAAGCGTC
  switch fluorescence ratio: 0.966

## TAGATCTAAA
  switch fluorescence ratio: 1.03

## CCCCGTCGTC
  switch fluorescence ratio: 1.21

## CCAAAAAAA
  switch fluorescence ratio: 1.14

## TCACTGAGGC
  switch fluorescence ratio: 1

## CTTTTTCTTA
  switch fluorescence ratio: 1.02

## GACGACTTTG
  switch fluorescence ratio: 1.07

## TGATTCATAA
  switch fluorescence ratio: 1.01

## ATACTGGAG
  switch fluorescence ratio: 1.09

## TAGTGCATTG
  switch fluorescence ratio: 0.976

## GCATTTTACG
  switch fluorescence ratio: 1.03

## TCCCGAAGCG
  switch fluorescence ratio: 1.85

## AGCAAGGCAG
  switch fluorescence ratio: 0.996

## GTAATAATGA
  switch fluorescence ratio: 0.987

## AAAGCCATGA
  switch fluorescence ratio: 0.982

## TTTTCGCGCC
  switch fluorescence ratio: 1.1

## GATCAATAGG
  switch fluorescence ratio: 0.948

## CAGTTAGCA
  switch fluorescence ratio: 1.02

## CTCGGGGCTC
  switch fluorescence ratio: 1.06

## CTTATTAGGA
  switch fluorescence ratio: 0.987

## CAGTAGACTC
  switch fluorescence ratio: 1.06

## CCGTATTA
  switch fluorescence ratio: 1.2

## TACATGCTTT
  switch fluorescence ratio: 1.03

## AAGGCTGAG
  switch fluorescence ratio: 1.02

## CAGCCCAGGA
  switch fluorescence ratio: 0.996

## AAGCAGGTCG
  switch fluorescence ratio: 1.02

## CAGATCAAT
  switch fluorescence ratio: 1.04

## ATCTTGCTGC
  switch fluorescence ratio: 1.01

## GTTAATAGG
  switch fluorescence ratio: 0.973

## TTTAGCCCAC
  switch fluorescence ratio: 0.983

## GTACGGGCAG
  switch fluorescence ratio: 1.02

## ATTGGCGA
  switch fluorescence ratio: 1.02

## GTTGGAGAGT
  switch fluorescence ratio: 1

## CAGTTAACCG
  switch fluorescence ratio: 0.969

## CTCGTACACC
  switch fluorescence ratio: 1.06

## CATACGCAGC
  switch fluorescence ratio: 4.63

## AGTTTC
  switch fluorescence ratio: 0.966

## GTATAAGAAG
  switch fluorescence ratio: 1.06

## CGATTGTCAA
  switch fluorescence ratio: 0.929

## GCGTCTATTT
  switch fluorescence ratio: 0.998

## GATATCCGGG
  switch fluorescence ratio: 0.955

## GTGTTGGTCG
  switch fluorescence ratio: 1.01

## TTGTCCCGTA
  switch fluorescence ratio: 1.06

## AACCGGTATG
  switch fluorescence ratio: 0.978

## AAGCATTCAT
  switch fluorescence ratio: 1.01

## TATATCTTAG
  switch fluorescence ratio: 1.04

## TTCAGACCCT
  switch fluorescence ratio: 1.01

## GATGTTTACG
  switch fluorescence ratio: 0.942

## TAGGGCAACA
  switch fluorescence ratio: 1.01

## CAGGCAAGAA
  switch fluorescence ratio: 1.31

## GTTACAAAGA
  switch fluorescence ratio: 1.03

## TATTTTAACT
  switch fluorescence ratio: 0.962

## ACAGTTCTCG
  switch fluorescence ratio: 0.978

## GTCCTGGCCA
  switch fluorescence ratio: 0.987

## TTATGGGATC
  switch fluorescence ratio: 1.05

## ACCTCTACTA
  switch fluorescence ratio: 1.24

## TTCGTCTCAG
  switch fluorescence ratio: 0.995

## CCAGCGGGAC
  switch fluorescence ratio: 2.61

## GTTTGTTATA
  switch fluorescence ratio: 1.01

## ACAAGTTGGG
  switch fluorescence ratio: 0.957

## TTCAGTTGAA
  switch fluorescence ratio: 1.01

## AAGACCGCAT
  switch fluorescence ratio: 1.47

## GGTTGGTTAA
  switch fluorescence ratio: 0.978

## GTTCCTGGG
  switch fluorescence ratio: 0.955

## CGACGGCGGG
  switch fluorescence ratio: 1.03

## TAAGGATTTC
  switch fluorescence ratio: 0.951
